We go through 54 compounds from ChEMBL document CHEMBL4888484, “Replenishing the malaria drug discovery pipeline: Screening and hit evaluation of the MMV Hit Generation Library 1 (HGL1) against asexual blood stage Plasmodium falciparum ,using a nano luciferase reporter read-out” (2022).

The campaign covered roughly 150,000 compounds. About 540 (0.36%) showed an effect of 50% or more. This is one part of the list.

The subject of this assay is Plasmodium falciparum. Description: Primary screen in NF54 nanoGlo assay, in single point, at 2uM, 72h; a lower Z score goes with more inhibition. It is filed as functional, Erythrocyte. The settings on record: timepoint 72 hour.
In the case of `CCn1ccc(C(=O)N2CC[C@H](n3cc(COCc4ccccc4)nn3)C2)n1`, the “% Inhibition” value is on record as -16% and the Z score is 2.37.

For the compound `O=C(NCCc1ccccc1F)c1cn(C2CCCCC2)nn1`, the “% Inhibition” value is given as -3% and the Z score amounted to 0.49.

`O=C1C2ON(c3ccccc3)C(c3ccccc3F)C2C(=O)N1c1cccc(-c2ccccc2)c1` (stereo not drawn): the “% Inhibition” value was 7% and the Z score is reported as -0.91.

As for `CCCCN(CC(F)(F)F)C(=O)c1cccc(N)c1`, the “% Inhibition” value is reported as -1% and the Z score was determined as 0.19.

As for `COc1ccc(OC)c(CNC(=O)c2ccc(C)c(-n3nnc4cccnc43)c2)c1`, the “% Inhibition” value is listed as -10% and the Z score worked out at 2.04.

For the compound `CCCC(=O)N1CCN(Cc2ccc(F)c(Cl)c2)[C@@H]2CS(=O)(=O)C[C@@H]21`, the “% Inhibition” value is recorded as -19% and the Z score is recorded as 2.11.

As for `O=C(NC1(C(=O)O)CCC1)c1ccc(CN2CCc3ccccc3C2)o1`, the “% Inhibition” value is given as -10% and the Z score is recorded as 1.1.

For `COc1cc(OC)cc(C(=O)N2C[C@@H]3CC[C@H]2CN(Cc2ccccn2)C3)c1`, the “% Inhibition” value is listed as -8% and the Z score was 1.29.

As to `CC[C@@](C)(C#N)NC(=O)c1cccc(S(C)(=O)=O)c1`, the “% Inhibition” value is -2% and the Z score worked out at 0.32.

Consider `O=C(Nc1ccc2c(c1)OCO2)C1CCN(C(=O)C2c3ccccc3Oc3ccccc32)CC1`, for which the “% Inhibition” value is listed as -6% and the Z score is reported as 0.67.

For the compound `Cc1ccc(-c2nc(-c3c(C)ncc4c3CCNC4)no2)cn1`, the “% Inhibition” value was -5% and the Z score is on record as 0.41.

`CC1(S(=O)(=O)N2CC(c3ncc(C4CC4)cn3)C2)CC1`: the “% Inhibition” value came out at 7% and the Z score is recorded as -1.18.

Turning to `N#Cc1ncn(Cc2sc3ccccc3c2Cl)n1`, the “% Inhibition” value was 4% and the Z score is listed as -0.41.

On to `CCOCCOc1ccc(-c2nc(=O)c(CCC(=O)N3CCOCC3)n[nH]2)cc1`, for which the “% Inhibition” value stood at 3% and the Z score was -0.37.

For the compound `CCn1nccc1-c1nc(C)cc(C2CCC2)n1`, the “% Inhibition” value is on record as -4% and the Z score worked out at 0.42.

As to `C/C=C\Cn1c(C(=O)N2CCN(Cc3ccccc3)CC2)cc2c(OCC)cccc21`, the “% Inhibition” value was -6% and the Z score worked out at 0.71.

On to `O=C(COc1ccc2ccccc2c1)N1C[C@@H](CN2CCCCC2)[C@@H](CO)C1`, for which the “% Inhibition” value is listed as -4% and the Z score is on record as 0.79.

With `NC(=NC[C@@H](c1ccc(Cl)cc1)n1cccn1)N1CCOCC1`, the “% Inhibition” value is reported as -5% and the Z score was determined as 0.52.

For the compound `Cn1nc(C2CCCCC2)c(C(N)=O)c1N`, the “% Inhibition” value worked out at 21% and the Z score was -2.65.

In the case of `O=C(Nc1ccc(Oc2ccncc2)c(Cl)c1)c1cc[nH]c(=O)c1`, the “% Inhibition” value is -11% and the Z score was determined as 1.03.

`COc1cc2c(cc1OC)[C@H](CNC(=O)c1ccc(C)cc1)N(Cc1ccccc1F)CC2`: the “% Inhibition” value is listed as -5% and the Z score was determined as 0.58.

As to `COc1cc(OC)c(NC(=O)c2cnc(N(C)C)nc2)cc1Cl`, the “% Inhibition” value was determined as 7% and the Z score is given as -1.28.

For `CC(=O)N[C@H]1[C@H](c2ccccc2)N(Cc2cccnc2)CC[C@@]1(C)O`, the “% Inhibition” value is listed as -11% and the Z score is 1.41.

`O=C1CN(c2ccc(CNC(=O)c3cnccn3)cc2)CCN1`: the “% Inhibition” value was determined as 2% and the Z score is -0.25.

As to `Cc1cc(C)n(CCN(C)CC(=O)NC[C@H]2CCCO2)n1`, the “% Inhibition” value was -9% and the Z score came to 1.4.

`Cc1cccn2cc(COc3ccccc3C(=O)NCc3c[nH]nn3)nc12`: the “% Inhibition” value was -12% and the Z score was 1.81.

In the case of `CCc1cc(CC(=O)NC[C@H]2CCC3(CCCCC3)O2)n(C)n1`, the “% Inhibition” value is given as -10% and the Z score stood at 1.34.

Turning to `CCn1ccnc1CNc1nc(C)cc(C)n1`, the “% Inhibition” value is reported as -3% and the Z score is reported as 0.59.

As to `O=C(Cc1ccc(Cl)c(Cl)c1)N1CCC[C@H]1c1nnc2ccccn12`, the “% Inhibition” value is -8% and the Z score is reported as 1.37.

Turning to `CC(=O)N(CCN1CCCCC1)[C@H]1CCCN(C(=O)CC(C)C)C1`, the “% Inhibition” value came out at 8% and the Z score is listed as -1.01.

On to `CC(C)(C)OC(=O)N1CCC([C@H]2OCC[C@@H]2NC(=O)CC#N)CC1`, for which the “% Inhibition” value is on record as 4% and the Z score was -0.65.

For the compound `COC[C@@]12CN(C(C)=O)CC[C@@H]1CN(S(=O)(=O)c1cc(OC)ccc1OC)C2`, the “% Inhibition” value is -10% and the Z score stood at 1.45.

As to `N#Cc1ncn(CC(=O)N2CCCc3ccccc32)c1C#N`, the “% Inhibition” value was -5% and the Z score turned out to be 0.65.

Consider `CCc1ncc(CNC(=O)c2ccc3c(c2)[C@@H](C)CO3)o1`, for which the “% Inhibition” value turned out to be 2% and the Z score is recorded as -0.37.

On to `CC1CC(NS(C)(=O)=O)C(=O)N1c1ccccc1` (stereo not drawn), for which the “% Inhibition” value is on record as 9% and the Z score is reported as -1.78.

As for `Cc1ccc(-c2ncc(C(=O)N[C@H]3CCc4[nH]ncc4C3)c(O)n2)cc1`, the “% Inhibition” value is listed as -4% and the Z score is 0.56.

As to `Cc1ccc(C(=O)N2CCc3n[nH]cc3C2)n1C(F)F`, the “% Inhibition” value was 4% and the Z score is reported as -0.73.

In the case of `FC(F)(F)[C@@H]1CN(c2noc(-c3ccccc3)n2)CCO1`, the “% Inhibition” value was -6% and the Z score came out at 0.66.

On to `Cc1nc(C(=O)Nc2nc3c(s2)C(=O)NCCC3)cs1`, for which the “% Inhibition” value is -15% and the Z score is recorded as 2.93.

For `COc1ccc([C@H](C)NCC(=O)N2CCCCCC2)c(OC)c1`, the “% Inhibition” value was -4% and the Z score turned out to be 0.72.

As for `c1ccc(-c2noc(-c3cncnc3NC3CCCCC3)n2)cc1`, the “% Inhibition” value is reported as -4% and the Z score amounted to 0.64.

Consider `CC(=O)Nc1ccc(C)cc1NCc1nccn1CC(F)(F)F`, for which the “% Inhibition” value is listed as -5% and the Z score came out at 0.68.

On to `CC(C)(C)c1ccc(-c2ccc(C(=O)NCC3(O)CCOCC3)o2)cc1`, for which the “% Inhibition” value was 35% and the Z score is -0.59.

Take `CS(=O)(=O)N(CC(F)(F)F)C1CCN(Cc2ccccc2C2CC2)CC1`: the “% Inhibition” value worked out at 6% and the Z score is given as -0.86.

Take `Cc1ccc(C)c(C2CCN(C(=O)CS(=O)(=O)C(C)C)CC2)c1`: the “% Inhibition” value is given as -1% and the Z score is given as 0.12.

As to `CCn1nccc1-c1ccc(CN2CCN(C)CC2)cn1`, the “% Inhibition” value is 1% and the Z score is recorded as -0.14.

In the case of `COc1cc(NC(=O)COc2ccccc2C)ncn1`, the “% Inhibition” value is recorded as -8% and the Z score is reported as 1.55.

For the compound `Cc1ccc(CNC(=O)CCn2cncn2)s1`, the “% Inhibition” value is given as -7% and the Z score worked out at 0.59.

In the case of `CC(=O)c1cccc(CN2CCC(CCC(=O)Nc3ccccc3Cl)CC2)c1`, the “% Inhibition” value was -8% and the Z score is on record as 1.34.

`CN1c2ccc(NC(=O)c3ccncc3F)cc2N(C)S1(=O)=O`: the “% Inhibition” value is recorded as -2% and the Z score is reported as 0.47.

As for `O=C(Nc1nc2ccccc2[nH]1)c1cccs1`, the “% Inhibition” value is listed as -1% and the Z score is on record as 0.15.

As for `Cc1ccc(-c2nnc(NC(=O)c3c(C)nn(C)c3C)[nH]2)o1`, the “% Inhibition” value was -13% and the Z score is recorded as 1.51.

For the compound `Cc1ccnc(CC(=O)NC(C)(C)CN2CCOCC2)c1`, the “% Inhibition” value is recorded as -8% and the Z score is listed as 1.25.

Consider `COC[C@H](NC(=O)N(C)Cc1cc(F)c(F)c(F)c1)C1CC1`, for which the “% Inhibition” value was -17% and the Z score was found to be 1.48.

In general, % Inhibition refers to the relative decrease from the control value, in per cent.
